Laboratory results as given in PubChem BioAssay AID938 (National Center for Advancing Translational Sciences (NCATS), 2007).
The campaign covered roughly 73,000 compounds. About 1,800 (2.5%) were called active. Another 13% or so got no clear call; they are omitted. Calls follow the shape of the dose curve; as a rule, active = well fitted activation curve with a large enough effect; inconclusive = small, poorly fitted or top-dose-only effect; inactive = no such curve, though single readings can be large or run the other way. The list shows a part of the results, in another mix than the full data. Where a structure was tested more than once in an assay, its records may differ in their call.

assay: qHTS Assay for Agonists of the Thyroid Stimulating Hormone Receptor: Activators of Intracellular cAMP Concentrations in Parental HEK 293; conditions: parental HEK293 CNG cAMP sensor, membrane potential fluorescence; series mostly up to 57.1 µM; activation: at the top concentration; also: nearly all actives have a fitted effect of over 55% in size; as to activation: % of control where 0% means no effect
Procedure, shortened: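 Parental HEK 293 cells stably expressing a cAMP-gated CNG channel were loaded with membrane potential dye containing 100 uM RO 20-1724 for 60 min. Compound added for 30 min; depolarization read as fluorescence intensity at 590 nm.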
Potency is read from the fitted curve at half-maximal effect.

| SMILES | activation | Potency |
| --- | --- | --- |
| CN(C)c1ccnc2sc(C(=O)NCc3ccccc3)c(N)c12 | inactive: -33.1% | – |
| NCCOB(c1ccccc1)c1ccccc1 | inactive: -34% | – |
| O=C(CSc1nnc(-c2ccc(Cl)cc2)n1Cc1ccco1)c1cccs1 | – | active: 15.8 µM |
| COc1cc(N)c(Cl)cc1C(=O)N[C@H]1CCN(CCCOc2ccc(F)cc2)C[C@@H]1OC | inactive: -60.8% | – |
| Clc1ccccc1OCc1nc(-c2ccccn2)no1 | inactive: -55.1% | – |
| COc1ccc(N2CCN(c3nc4ccccc4n3CC(=O)c3ccccc3)CC2)cc1 | inactive: -44.3% | – |
| COc1cccc(/C=N/n2c(-c3ccco3)nc3ccccc3c2=O)c1 | – | active: 15.8 µM |
| Cc1ccc(C(c2nnnn2CCc2ccccc2)N2CCSCC2)cc1 (centres undefined) | – | active: 20 µM |
| COc1ccc(OC)c(S(=O)(=O)N2CCC(C(=O)Nc3cccc(C(F)(F)F)c3)CC2)c1 | inactive: -0.432% | – |
| COC(=O)Cc1cc(=O)n(-c2nc3ccccc3s2)[nH]1 | inactive: -40.5% | – |
| CN(C)c1ccc(-c2ccc3ncnc(NCc4ccccc4)c3c2)cc1 | inactive: -52.6% | – |
| CNC(=O)[C@H](C)[C@H]1C[C@]1(C)[C@H](NC(=O)OCc1ccccc1)c1ccccc1 | – | active: 6.31 µM |
| CC[C@H](C)C(=O)O[C@@H]1C[C@H](C)C=C2C=C[C@H](C)[C@@H](CC[C@H]3C[C@@H](O)CC(=O)O3)[C@H]21 | inactive: 8.46% [at 25.6 µM] | – |
| Cn1c(=O)c2c(nc(N3CCCCCC3)n2CC(=O)c2ccc(Br)cc2)n(C)c1=O | inactive: -33.2% | – |
| CCCCC[C@H](O)C=C[C@H]1[C@H](O)CC(=O)[C@H]1CCCCCCC(=O)O | – | active: 0.01 µM |
| Cc1cccc(C(C)C)c1-n1nnnc1-c1ccccc1 | – | active: 20 µM |
| CC(=O)Nc1ccc(C(=O)O)cc1 | inactive: -12.6% | – |
| CN1CCC[C@@H]1CCO[C@](C)(c1ccccc1)c1ccc(Cl)cc1 | – | inactive |
| CCc1nc(OCc2ccco2)c2sc3nc4c(cc3c2n1)COC(C)(C)C4 | inactive: 59.5% | – |
| CCOC(=O)N/N=C1/C[C@@H](O)[C@@H](O)[C@@H]2[C@@H]3C(=O)N(C(C)(C)C)C(=O)[C@H]3CC[C@@H]12 | inactive: 0.469% [at 11.4 µM] | – |
| CCc1oc2ccccc2c1C(=O)c1cc(Br)c(O)c(Br)c1 | inactive: 44.3% [at 25.6 µM] | – |
| CCC(C)(C)n1nnnc1C(c1ccc(C)cc1)N1CCCC1 (centres undefined) | – | active: 25.1 µM |

| SMILES | activation | Potency |
| --- | --- | --- |
| CC(C)c1cc(C(F)(F)F)nc(NNc2nc(C(C)C)cc(C(F)(F)F)n2)n1 | – | active: 5.01 µM |
| COc1ccccc1N1CCN(C[C@@H](O)COc2cccc3ccccc23)CC1 | – | inactive |
| COC(=O)C1=C(C)NC(C)=C([N+](=O)[O-])[C@@H]1c1ccccc1C(F)(F)F | inactive: -21.1% | – |
| O=C(CSc1nnc(-c2ccccn2)n1Cc1ccco1)c1ccc(Cl)cc1 | – | active: 25.1 µM |
| NC(=O)c1cccc([N+](=O)[O-])c1 | inactive: -11.1% | – |
| CN(C)c1ccc(-c2nc(NCCN3CCOCC3)c3ccccc3n2)cc1 | inactive: -98.9% | – |
| CCOCCCn1c(C)nc2c(c1=O)c1nc3ccccc3nc1n2CCC1=CCCCC1 | – | active: 20 µM |
| N#Cc1cccc(C(c2nnnn2CCc2ccccc2)N2CCN(C3CCCCC3)CC2)c1 (centres undefined) | inactive: -38% | – |
| CCCn1nnc(NC(=O)COc2ccccc2Cl)n1 | inactive: 9.41% | – |
| O=C(c1ccco1)N1CCN(S(=O)(=O)c2ccc(Oc3ccccc3)cc2)CC1 | – | active: 20 µM |
| COCc1nc2ccccc2n1Cc1ccc(Br)cc1 | inactive: 35.8% | – |
| O=C1C[C@@H](O)[C@@H](O)[C@H]2[C@@H]3C(=O)N(Cc4ccccc4)C(=O)[C@@H]3CC[C@H]12 | inactive: -6.38% [at 11.4 µM] | – |
| C=CC(=O)CC | inactive: -19.3% | – |
| CC(=O)N1CCN(c2ccccc2NC(=O)c2cc(Br)ccc2Cl)CC1 | – | active: 31.6 µM |
| Cc1cc(Nc2cccc(F)c2)nc(-c2ccccc2O)n1 | inactive: -39.5% | – |
| CN(C)CCCn1cc(C2=C(c3c[nH]c4ccccc34)C(=O)NC2=O)c2ccccc21 | inactive: -52.9% | – |
| COc1ccccc1C(=O)Nc1ccc(N2CCN(Cc3ccccc3)CC2)cc1 | inactive: -66.2% | – |
| COC(=O)[C@@H]1[C@@H]2C[C@H]3c4[nH]c5cc(OC)ccc5c4CCN3C[C@@H]2C[C@H](OC(=O)c2cc(OC)c(OC)c(OC)c2)[C@H]1OC | inactive: -14.6% [at 25.6 µM] | – |
| COc1cc2ccccc2cc1C(=O)Nc1ccc(N2CCN(C)CC2)cc1 | inactive: -40.2% | – |
| Nc1ncnc2c1ncn2[C@@H]1O[C@@H](CO)[C@H](O)[C@H]1O | inactive: 6.49% [at 25.6 µM] | – |
| O=C(CSc1nnc(-c2ccc(Br)o2)n1Cc1ccccc1)c1ccccc1F | – | active: 20 µM |
| COC(=O)c1[nH]c2ccc(Br)cc2c1NC(=O)CN1CCN(C2CCCCC2)CC1 | inactive: -109% | – |

| SMILES | activation | Potency |
| --- | --- | --- |
| Cc1ccc(Cl)cc1N1CCN(Cc2nnnn2C2CCCCC2)CC1 | – | active: 12.6 µM |
| Cc1ccc(C(=O)Nc2ccccc2C(=O)NC2CCCCC2)cc1S(=O)(=O)N1CCOCC1 | – | active: 15.8 µM |
| CCN1CCN(c2nc3ccccc3nc2C(C#N)C(=O)OC2CCCCC2)CC1 (centres undefined) | inactive: -52.7% | – |
| CCOC(=O)c1c(NC(=O)CSc2nnc(Cc3csc(N)n3)n2C)sc(C)c1C | inactive: 0.369% | – |
| CCCCCCc1ccc(OCC(=O)O)cc1OCC(=O)O | inactive: 5.07% | – |
| CCC1CCCCN1CC(=O)Nc1cc(C)nn1-c1nc(C)cc(C)n1 (centres undefined) | – | active: 25.1 µM |
| CCOC(=O)CNc1nnc(SCC(=O)OCC)[nH]c1=O | inactive: -40.6% | – |
| Cc1ccc(-c2nc3nc4ccccc4nc3n2Cc2ccco2)cc1 | – | active: 25.1 µM |
| O=C1C(SCCO)=C(SCCO)C(=O)c2ccccc21 | inactive: -36.6% | – |
| NC(=O)NCC12CC3CC(CC(C3)C1)C2 | inactive: 2.33% | – |
| Cc1cccc2cc(C#N)c(N3CCN(C)CC3)nc12 | – | active: 15.8 µM |
| COC(=O)c1cc(COc2ccc3oc(C)c(C(=O)OC)c3c2)c(C)o1 | – | active: 15.8 µM |
| CNc1nc(-c2ccc3c(c2)OCO3)nc2ccccc12 | inactive: -38.6% | – |
| CCOC(=O)c1c(C)n(OCc2ccccc2)c2ccc3nonc3c12 | – | active: 10 µM |
| CN(C)CC[C@H](c1ccc(Cl)cc1)c1ccccn1 | inactive: 6.08% [at 25.6 µM] | – |
| COc1cccc(/C(O)=C2/C(=O)C(=O)N(c3cc(C)on3)C2c2cccs2)c1 (centres undefined) | inactive: 7.12% | – |
| O=C(CCc1ccccc1)Nc1ncn[nH]1 | inactive: 17.5% | – |
| Cc1ccc(CNc2ncc(-c3ccc4c(c3)OCO4)n2C)cc1 | inactive: -87.1% | – |
| N[C@H]1CCN(O)C1=O | inactive: 1.77% | – |
| COc1cccc(-c2nc(NCc3ccccc3)c3ccccc3n2)c1 | – | active: 31.6 µM |
